Read counts are not given, so values of variants with three or more changes are uncertain.
B1: LINE1-full (parent)
chain: UACGUAGGUGGUUUUCCCCUGAUAGUGCUAAGGGGGCCUGGAAGUUUGGACUGGGCAGAGCUCAACACAGCGUGGCAAAGUGGCUGUGGCUAGACUGCCUCUCUGGAUUCCUCGUCACUCAGCAGGGCAUCUCUGAGAGAAAUGCC

Variants of: B1
Test: self-cleavage, relative activity (ratio to wild type); higher = more cleavage; in vitro, sequencing; the parent is a self-cleaving ribozyme
With UACGUAGGUGGUUUUCCCCUGAUAGUGCUAAGGGGGCCUGGAAGUCUGGACUGGGCAGAGCUCAACACUGCGUGGCAGAGUGGCCGUGGCUAGACUGCCUCUCUGGAUUCCUCGUCACUCAGCAGGGCAUCUCUGAGAGAAAUGCC [U46C A69U A78G U85C] the self-cleavage was 0.09. With UACGUAGGUGGUUUUCCCCUGAUAGUGCUAAGGGGGCCUGGAAGUUCGGACUGGGCAGAGCUCAACACAGCGUGGCAAAGUGGCUGUGGCUAGACUGCCUCUCUGGAUUCCUCGUCACUCAGCAGGGCAUCUCUGAGUGAGAUGCC [U47C A138U A141G] the self-cleavage was 1.28. Work on UACGUAGGUGGUUUUCCCCUGAUAGUGCCAAGGGGGCCUGGAAGUUUGGACUGGGCAGAGCUCAGCACAGCGUGGCAAAGUGGCUGUGGCUAGACUGCCUCACUGGAUUCCUCGUCACUCAGCAGGGCACCUCUGAGAGAAAUGCC [U29C A65G U102A U130C] yielded a self-cleavage of 0.79. For UACGUAGGUGGUUUUCCCCUGAUAGUGCUAAGGGGGCCAGGAAGUCUGGACUUGGCAGAGCUCAACACAGCGUGGCAAAGUGGCUGUGGCUAGACUGCCUCUCUGGAUUCCUCGUCACUCAGCAGGGCAUCUCUGAGAGAAAUGCC [U39A U46C G53U], the self-cleavage was 1.6. UACGUAGGUGGUUUUCCCCUGAUAGUGCUAAGGGGGCCUGGAAGUUUGGACUGGGCAGGGCUCAACACAGCGUGGCAAAGUGGUUGUGGCUAGACUGCCUCUCUGGAUUUCUCGACACUCAGCAGGGCAUCUCUGUGGGAAAUGCC [A59G C84U C110U U115A A136U A138G] gave a self-cleavage of 0.01. In the case of UACGUAGGUGGUUUUCCCCUGAUAGUGCUAAGGGGGCCUGGAAGUUUGGACUGGGCAGAGCUCGACACAGCGUGGCAAAGUGGCUGUGGCUAGACUGCCUCUCCGGAUUCCUCGUCACUCAGCAGGGCAUCUCAGAGAGAAAUGCC [A64G U104C U134A], the self-cleavage is reported as 0. UAUGUAGGUGGUUUUCCCCUGAUAGUGCUAAGGGGGCCUGGAAGUUUGGACUGGGCAGAGCUCAACACAGCGUGGCAAAGUGGCUGUGGCUAGACUGCCUCUCUGGACUCCACGUCACUCAGCAGGGCAUCUCUGAGAGAAAUGCC [C3U U108C U112A] showed a self-cleavage of 2.12. For UACGUAGGUGGUUUUCCCCUGAUAGUGCUAAGGGGGCCUGGAAGUUUGGACUGGGCAGGGCUCAACACAGCGUGGCAAAGUGGCUGUGGCUGGACUGCCUCUCUGGAUUCCUCGUCACUCAGCAGGGCAUCUCUGAGAGAAACGCC [A59G A92G U143C], the self-cleavage was 0.15. UACGUGGGUGGUUCUCCCCUGAUAGUGCUAAGGGGGCCGGGAAGUUUGGACUGGGCAGAGCUCAACCCAGCGUGGCAAAGUGGCUGUGGCUAGACUGCCUCUCUGGAUUCCUCGUCACUCAGCAGGGCAUCUCUGAGAGAAAUGCC [A6G U14C U39G A67C] gave a self-cleavage of 0. With UACGUAGGUGGUUUUCCCCUGAUGGUGCUAAGGGGGCCUGGAAGUUUGGACUGGGCAGAGCUCAACACAGCGUGGCAUAGUGGCUGUGGCUAGACUGCCUCUCUGGAUUCCUCGACACUCAGCAGGGCAUCUCUGAGAGAAAUGCC [A24G A78U U115A] the self-cleavage was 1.72. Variant UACGUAGGUGGUUUUCCCCUGAUAGUGCUAAGGGGGCCUGGAAGUUUGGACUGGGCAGAUCUCAACACAGCGUGGCAAAGUGUCUGUGGCCAGACUGCCUCUCUGGAUUCCUCGUCACUCAGCAGGGCAUCUCUGAGAGAAAUGCC [G60U G83U U91C] has a self-cleavage of 0.06. Variant UGCGCAGGUGGUUUUCCCCUGAUAGUGCUAAGGGGGCCUGGAAGCUUGGACUGGGCAGAGCUCAACACAGCGUGGCAAAGUGGCUGUGGCUAGACUGCCUCUCUGGAUUCCUCGUCACUCAGCAGGGCAUCUCUGAGAGAAAUGCC [A2G U5C U45C] has a self-cleavage of 0.33. For UACGUAGGGGGGUUUCCCCUGAUAGUGCUAAGGGGGCCUGAAAGUUUGGACUGGGCAGAGCUCAACACAGCGUGGCAAAGUGGCUGUGGCUAGACUGCCUCUCUGGAUUCCUCGUCACUCAGCAGGGCAUCUCUGAGAGAAGUGCC [U9G U12G G41A A142G], the self-cleavage was 0.59. Work on UACGUAGAUGGUUUUCCCCUGAUAGUGCUAAGGGGGCCUGGAAGCUUGGACUGGGCAGAGCUCAACACAGAGUGGCAAAGUGGCUGUGGCUAGACUGCCUCUCUGGAUCCCUCGUCACUCGGCAGGGCAUCUCUGAGAGAAAUGCC [G8A U45C C71A U109C A121G] yielded a self-cleavage of 0.31. For UACGUAUGUGGUUUUCCCCUGAUAGUGCUAAGGGGGCCUGGAAGUUUGGACUGGGCAGUGCUCUACACAGCGUGGCAAAGUGGCUGUGGCUAGACUGCCUCUCUGGAUUCCUAGUCACUCAGCUGGGCAUCUCUGAGAGAAAUGCC [G7U A59U A64U C113A A124U], the self-cleavage was 0.16. UACGUAGGUGGUUAUCCCCUGAUAGUGCUAAGGGGGCCUGGAAGUUUGGACUGGGCAGAGCUCAACACAGCGUGGCAAAGUGGCGGUGGCUAGACUGCCUCUCUGGAUUCCUCGUCACUCAGCAGGGCAUCUCUGAGAGGAAUGCC [U14A U85G A140G] gave a self-cleavage of 0.08. Work on UACGUAGGUGGUUUUCCCCUGAUAGUGCUAAGGUGGCCUGGAAGUUUGGACUGGGCAGAGCUCAGCACAGCGAGGCAAAGUGGCUGUGGCUAGACUGCCUCUCUGGAUUCCUCGUCACUCAGCAAGGCAUCUCUGAGAGAAAUGCC [G34U A65G U73A G125A] yielded a self-cleavage of 0.02. UACGUAGGUGGUUUUCCCCAGAUAGUGCUAAGGGGCCCUGGAAGUUUGGACUGGGCAGAGCUCAUCACAGCGUGGCAAAGUGGCUGUGGCUAGACUGCCUCUCUGGAUUCCUCGUCACUCAGCAGGGCAUCUCUGAGAGAAAUGCC [U20A G36C A65U] gave a self-cleavage of 0.14. With UACGUAGGUGGUUUUCCCCAGAUAGUGCUAAGGGGGCCUGGAAGUUUGGACUGGGCAGAGCUCAACACAGCGUGGCAAAGUGGCUGUGGUUAGACUGCCUCCCUGGAUUCCUCGUCACUCUGCAGGGCAUCUCUGAGAGAAAUGCC [U20A C90U U102C A121U] the self-cleavage was 0.03. Work on UACGUGGGUGGUUUUCCCCUGAUAGUGCUAAGGGGGCCUGGAAGUUUGGACUGGGCAGAGCUCAACACAGCAUGGCAAAGUGGCUGUGGCUAGACUGCCUCUCUGGAUUCCUCGUCACUCUGCAGGGCAUCUCUAAGAGAAAUGCC [A6G G72A A121U G135A] yielded a self-cleavage of 0.89.

— the RNAGym collection of RNA variant scans (doi:10.7554/elife.90254)
